Test results: the supplement of paper PMC3334620
Whole data set: some 33,000 sequences, median “E-score (-0.5 to 0.5)” near -0.056, cut for the highest 2% near 0.38. The list shows a part of the results.

Biological target: Stb4 (UniProt P50104)
Assay: PBM E-score (8-mer binding enrichment) (E-score (-0.5 to 0.5)); higher = stronger / more preferred TF binding; most listed sequences are background and not binding sites
Settings: protein concentration: 200 nM; construct: GST-DNA-binding domain
Outline: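 Universal all-10-mer Agilent arrays, fresh or stripped once, were converted to double-stranded form by primer extension. GST-tagged yeast transcription factors from PURExpress in vitro transcription/translation, full-length or DNA-binding domain only, were applied at about 100-200 nM and detected with fluorescent anti-GST. After masliner normalisation, the Universal PBM Analysis Suite scored each ungapped eight-base word together with its reverse complement by E-score.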

In order of rising “PBM E-score” value:
1. CAGCAATG  -0.394
2. AGGGGGTA  -0.35
3. CTCCTCCA  -0.31
4. CCCTTAGG  -0.297
5. AGTGCTGG  -0.295
6. AATGCTGA  -0.268
7. AGCTGGAA  -0.246
8. ATTCTCTG  -0.242
9. ACACAGAT  -0.239
10. GGTGAACA  -0.237
11. GGCCCTCA  -0.237
12. TGACCCAA  -0.235
13. CAATCGAC  -0.235
14. AGTCTTTA  -0.232
15. ACAAACTG  -0.225
16. AGTGCATG  -0.22
17. CCACTAGC  -0.22
18. CCCAGCGA  -0.218
19. CAGGCGTC  -0.216
20. AGCTTACG  -0.213
21. GTCATACA  -0.208
22. AGATCTAA  -0.203
23. AGAGTGGA  -0.2
24. ATATACGC  -0.2
25. CATGATTA  -0.195
26. CGCCACTA  -0.194
27. AACACACT  -0.191
28. ATTCCTCA  -0.178
29. GAACTCCA  -0.178
30. ATAGATAG  -0.175
31. ACGAGAGT  -0.174
32. CTTTCGAC  -0.172
33. CCTTGCGA  -0.172
34. ACACTCCA  -0.17
35. CTATCAGC  -0.166
36. AGCGTTAG  -0.166
37. AGCTTAGC  -0.165
38. AGAGTGCG  -0.164
39. CCTGGACG  -0.162
40. GTATAAGA  -0.162
41. GACCCTCA  -0.162
42. AGGTACAA  -0.158
43. ACGCACAT  -0.158
44. AGGCGTGG  -0.158
45. CCATTGAA  -0.153
46. ACGCATAA  -0.153
47. CAAGACAG  -0.15
48. AGACGGTG  -0.15
49. TCCACAGA  -0.15
50. AGAGGAAC  -0.149
51. AGTTATCA  -0.149
52. ACCTCTCA  -0.147
53. GAGCTATA  -0.147
54. AGGCGAGG  -0.143
55. AGCCCTGG  -0.141
56. GCGCCTTA  -0.14
57. CCTAGCGC  -0.139
58. AGACGGCG  -0.137
59. AAACTGGC  -0.137
60. AAGCTAGC  -0.132
61. CTCGCGAC  -0.131
62. GCCTTCAA  -0.13
63. CGCCTAAG  -0.13
64. ACTCACAA  -0.129
65. CCAAGACA  -0.127
66. ACAAAGCT  -0.122
67. AAAGCAGC  -0.119
68. AGGCTGAC  -0.119
69. CCATAATC  -0.118
70. AACTGAGG  -0.108
71. ACACATTA  -0.107
72. CCCACCTC  -0.102
73. CGAAGCCA  -0.0994
74. CGACAGAC  -0.0991
75. AATAGTAG  -0.0971
76. AACGCCAC  -0.0971
77. AGCTGGCA  -0.097
78. GCGACGAC  -0.0957
79. GAGACCTA  -0.0943
80. CCAAGCAG  -0.0901
81. CCATAGAG  -0.0878
82. CTCTAGTC  -0.0877
83. AGGTGAAA  -0.0871
84. GAAGTTGA  -0.085
85. CTACTGAC  -0.0845
86. ACACGTCA  -0.0839
87. AATCTGTG  -0.0797
88. CGCTTACG  -0.0795
89. ACGTTCCA  -0.0774
90. CTAACCCC  -0.0772
91. AGGTTTCC  -0.0733
92. CTTGACTA  -0.0726
93. GAGACAGC  -0.0706
94. CTCATGAC  -0.0701
95. AAAGCTGA  -0.0624
96. CTCATCGA  -0.0597
97. ATGAACAG  -0.0564
98. ATGGGGAC  -0.055
99. ACTGACAG  -0.0505
100. GCCACTAC  -0.0487
101. ATATTGCA  -0.0447
102. ATTACGTG  -0.0426
103. ACTTTCAC  -0.0388
104. AGAACTAT  -0.037
105. TGCCCGCA  -0.0283
106. ATCAGAAC  -0.0273
107. CAGAGAAG  -0.0211
108. CCAAGTCG  -0.0205
109. AAATCTCT  -0.0193
110. ATACGGGG  -0.0189
111. ATCGTGCG  -0.0188
112. AACCACAA  -0.016
113. CCACAAGG  -0.016
114. GTTTGATA  -0.0156
115. CAAAGACG  -0.012
116. CTACCTTC  -0.00447
117. ACGAGTTC  -0.00258
118. GCCAGACA  -0.00042
119. GAGGGATA  -0.0002
120. ATGAATAG  0.00085
121. TACGGGCA  0.00388
122. ATGCCGTG  0.00847
123. ACCACAAT  0.0164
124. GCCGTTCA  0.0188
125. AAAGTACG  0.0208
126. CTACTAAC  0.0266
127. ACGCAATC  0.0277
128. GCCCGTAA  0.0313
129. ATGTTATC  0.0348
130. AACTAGCG  0.0384
131. AATTATGA  0.0422
132. TAGCCAAA  0.0424
133. GGCACGTA  0.0438
134. AGTATCAT  0.0471
135. GCCGCCGC  0.0507
136. CAATGCCC  0.0552
137. AATTCATG  0.0647
138. CAACCGTC  0.0656
139. ATATCGCC  0.0778
140. GCAGATAA  0.0884
141. CGAACTGA  0.0902
142. AAGGGTAT  0.0918
143. GGCCAACA  0.0943
144. GTAACTAC  0.0955
145. GCCGCTGA  0.107
146. GTTATTTA  0.111
147. AACCAGTC  0.117
148. GGAATAGA  0.126
149. GCAACGGC  0.129
150. CACCGATC  0.135
151. CGCAATTA  0.142
152. ATTATACC  0.143
153. AACTAGGT  0.144
154. GTGAAAAA  0.152
155. GGTGTCAC  0.153
156. GGATCTAA  0.16
157. GAACGCGC  0.175
158. CGGAGGCA  0.191
159. CGCCTCCG  0.206
160. CGAAGTCC  0.213
161. GGATCGTA  0.218
162. AGTCGGAG  0.226
163. CGGAGACG  0.235
164. ATACCGGG  0.256
165. CGACCGAA  0.274
166. GCGGATCC  0.301
167. ATGCCGAC  0.333
168. CCGAAACA  0.364
169. GTCGGCTA  0.377
170. ACTACCCG  0.401
171. CGGGAAGA  0.401
172. ATTCCGAC  0.416
